The supplement of paper PMC4604168 (melanoma cell lines)
The list shows a part of the results. Repeats are few or missing, and single values can be far off.

Tested on: SkMel30
Experiment: cell count relative to DMSO control; melanoma cells; higher = more viable cells
Conditions: library dose: low library concentration; 72 h
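Further: cell number obtained by counting DAPI-stained nuclei in high-throughput microscope images with image analysis software, screen run in 1,536-well plates.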

Structure (SMILES)	cell count [%]
Cn1c(Nc2ccc(C(F)(F)F)cc2)nc2cc(Oc3ccnc(-c4ncc(C(F)(F)F)[nH]4)c3)ccc21 + CCCCCCCCCCCC1=C(O)C(=O)C=C(O)C1=O [Embelin] (first compound 0.08 µM, partner dose 1.2 µM)	56.9
O=C(CCCCCCC(=O)Nc1ccccc1)NO [vorinostat] + O=C(O)C(=O)Nc1sc2c(c1C(=O)O)CCNC2 [TCS401] (first compound 0.08 µM, partner dose 1.66667 µM)	97.5
O=C(CCCCCCC(=O)Nc1ccccc1)NO [vorinostat] + CCc1ccc(CCOc2ccc(CC3SC(=O)NC3=O)cc2)nc1 [pioglitazone] (first compound 0.08 µM, partner dose 2 µM)	106
C#Cc1cccc(Nc2ncnc3cc(OCCOC)c(OCCOC)cc23)c1 [erlotinib] + O=C(Nc1ccccc1)c1cc([N+](=O)[O-])ccc1Cl [GW9662] (first compound 0.8 µM, partner dose 2 µM)	89.9
C#Cc1cccc(Nc2ncnc3cc(OCCOC)c(OCCOC)cc23)c1 [erlotinib] + Oc1nc(-c2ccc(C(F)(F)F)cc2)nc2c1CSCC2 [XAV939] (first compound 0.8 µM, partner dose 2 µM)	120
COCC[n+]1c2c(n(Cc3cnccn3)c1C)C(=O)c1ccccc1C2=O + CCc1ccc(CCOc2ccc(CC3SC(=O)NC3=O)cc2)nc1 [pioglitazone] (first compound 0.0004 µM, partner dose 2 µM)	113
Cn1c(Nc2ccc(C(F)(F)F)cc2)nc2cc(Oc3ccnc(-c4ncc(C(F)(F)F)[nH]4)c3)ccc21 + N#Cc1c(O)c2c(-c3ccc(-c4ccccc4O)cc3)csc2[nH]c1=O [A769662] (first compound 0.08 µM, partner dose 2 µM)	62.7
O=C(CCCCCCC(=O)Nc1ccccc1)NO [vorinostat] + COc1ccc(-c2ccc3c(N4CCOCC4)nc(N4C[C@@H](C)O[C@@H](C)C4)nc3n2)cc1CO [KU0063794] (first compound 0.08 µM, partner dose 0.02 µM)	103
C#Cc1cccc(Nc2ncnc3cc(OCCOC)c(OCCOC)cc23)c1 [erlotinib] + N#Cc1c(O)c2c(-c3ccc(-c4ccccc4O)cc3)csc2[nH]c1=O [A769662] (first compound 0.8 µM, partner dose 2 µM)	77.2
COCC[n+]1c2c(n(Cc3cnccn3)c1C)C(=O)c1ccccc1C2=O + COC(=O)c1sccc1S(=O)(=O)Nc1ccc(Nc2ccccc2)cc1OC [GSK0660] (first compound 0.0004 µM, partner dose 1 µM)	70
COCC[n+]1c2c(n(Cc3cnccn3)c1C)C(=O)c1ccccc1C2=O + Cn1cc(/C=C2\C(=O)Nc3cccnc32)c2ccccc21 [GW441756] (first compound 0.0004 µM, partner dose 0.4 µM)	90.1
Cn1c(Nc2ccc(C(F)(F)F)cc2)nc2cc(Oc3ccnc(-c4ncc(C(F)(F)F)[nH]4)c3)ccc21 + CCc1ccc(CCOc2ccc(CC3SC(=O)NC3=O)cc2)nc1 [pioglitazone] (first compound 0.08 µM, partner dose 2 µM)	63.3
COCC[n+]1c2c(n(Cc3cnccn3)c1C)C(=O)c1ccccc1C2=O + CC(C)CCN1c2nc(Nc3cc(F)c(O)c(F)c3)ncc2N(C)C(=O)C1C [BID1870] (first compound 0.0004 µM, partner dose 0.2 µM)	89.9
O=C(CCCCCCC(=O)Nc1ccccc1)NO [vorinostat] + CC(C)CCN1c2nc(Nc3cc(F)c(O)c(F)c3)ncc2N(C)C(=O)C1C [BID1870] (first compound 0.08 µM, partner dose 0.2 µM)	103
C#Cc1cccc(Nc2ncnc3cc(OCCOC)c(OCCOC)cc23)c1 [erlotinib] + O=C(O)C(=O)Nc1sc2c(c1C(=O)O)CCNC2 [TCS401] (first compound 0.8 µM, partner dose 1.66667 µM)	93.1
C#Cc1cccc(Nc2ncnc3cc(OCCOC)c(OCCOC)cc23)c1 [erlotinib] + COc1ccc2c(c1)CCC1C2CCC2(C)C(NCCCCCCN3C(=O)C=CC3=O)CCC12 [U73122] (first compound 0.8 µM, partner dose 0.4 µM)	93.7
C#Cc1cccc(Nc2ncnc3cc(OCCOC)c(OCCOC)cc23)c1 [erlotinib] + Cc1cc([N+](=O)[O-])ccc1NS(=O)(=O)c1cc(Cl)ccc1Cl [FH535] (first compound 0.8 µM, partner dose 1 µM)	94.5
COCC[n+]1c2c(n(Cc3cnccn3)c1C)C(=O)c1ccccc1C2=O + COc1cc2ncnc(Nc3ccc(Oc4ccccc4)cc3)c2cc1OC [SrcI1] (first compound 0.0004 µM, partner dose 2 µM)	88.4

Structure (SMILES)	cell count [%]
Nc1cccc2c1CN(C1CCC(=O)NC1=O)C2=O (stereo not given) [lenalidomide] + O=c1cc(-c2cccc3c2Sc2ccccc2S3)oc(N2CCOCC2)c1 [KU55933] (first compound 1 µM, partner dose 1 µM)	81.7
Nc1cccc2c1CN(C1CCC(=O)NC1=O)C2=O (stereo not given) [lenalidomide] + COc1ccc(-c2ccc3c(N4CCOCC4)nc(N4C[C@@H](C)O[C@@H](C)C4)nc3n2)cc1CO [KU0063794] (first compound 1 µM, partner dose 0.02 µM)	117
Nc1cccc2c1CN(C1CCC(=O)NC1=O)C2=O (stereo not given) [lenalidomide] + Cc1cc([N+](=O)[O-])ccc1NS(=O)(=O)c1cc(Cl)ccc1Cl [FH535] (first compound 1 µM, partner dose 1 µM)	93.1
Nc1cccc2c1CN(C1CCC(=O)NC1=O)C2=O (stereo not given) [lenalidomide] + COc1cc2ncnc(Nc3ccc(Oc4ccccc4)cc3)c2cc1OC [SrcI1] (first compound 1 µM, partner dose 2 µM)	123
Cn1c(Nc2ccc(C(F)(F)F)cc2)nc2cc(Oc3ccnc(-c4ncc(C(F)(F)F)[nH]4)c3)ccc21 + COc1ccc2c(c1)CCC1C2CCC2(C)C(NCCCCCCN3C(=O)C=CC3=O)CCC12 [U73122] (first compound 0.08 µM, partner dose 0.4 µM)	54.4
Cn1c(Nc2ccc(C(F)(F)F)cc2)nc2cc(Oc3ccnc(-c4ncc(C(F)(F)F)[nH]4)c3)ccc21 + O=C(O)C(=O)Nc1sc2c(c1C(=O)O)CCNC2 [TCS401] (first compound 0.08 µM, partner dose 1.66667 µM)	82.8
O=C(CCCCCCC(=O)Nc1ccccc1)NO [vorinostat] + Oc1cc(-c2nc(-c3ccccc3)[nH]c2-c2ccncc2)ccc1Cl [L779450] (first compound 0.08 µM, partner dose 0.2 µM)	86.8
O=C(CCCCCCC(=O)Nc1ccccc1)NO [vorinostat] + O=C1NC(=O)/C(=C/c2ccc(-c3ccc(F)cc3O)o2)S1 [AS252424] (first compound 0.08 µM, partner dose 1 µM)	104
COCC[n+]1c2c(n(Cc3cnccn3)c1C)C(=O)c1ccccc1C2=O + Oc1nc(-c2ccc(C(F)(F)F)cc2)nc2c1CSCC2 [XAV939] (first compound 0.0004 µM, partner dose 2 µM)	97.7
C#Cc1cccc(Nc2ncnc3cc(OCCOC)c(OCCOC)cc23)c1 [erlotinib] + CCN(CC)CCCCNc1ncc2cc(-c3cc(OC)cc(OC)c3)c(NC(=O)NC(C)(C)C)nc2n1 [PD173074] (first compound 0.8 µM, partner dose 0.1 µM)	82.8
COCC[n+]1c2c(n(Cc3cnccn3)c1C)C(=O)c1ccccc1C2=O + c1cc(-c2cnn3cc(-c4ccc(OCCN5CCCCC5)cc4)cnc23)ccn1 [Dorsomorphin] (first compound 0.0004 µM, partner dose 0.4 µM)	104
O=C(CCCCCCC(=O)Nc1ccccc1)NO [vorinostat] + O=C(Nc1ccccc1)c1cc([N+](=O)[O-])ccc1Cl [GW9662] (first compound 0.08 µM, partner dose 2 µM)	105
Nc1cccc2c1CN(C1CCC(=O)NC1=O)C2=O (stereo not given) [lenalidomide] + O=C(O)C(=O)Nc1sc2c(c1C(=O)O)CCNC2 [TCS401] (first compound 1 µM, partner dose 1.66667 µM)	107
COCC[n+]1c2c(n(Cc3cnccn3)c1C)C(=O)c1ccccc1C2=O + O=c1cc(-c2cccc3c2Sc2ccccc2S3)oc(N2CCOCC2)c1 [KU55933] (first compound 0.0004 µM, partner dose 1 µM)	98.6
Nc1cccc2c1CN(C1CCC(=O)NC1=O)C2=O (stereo not given) [lenalidomide] + N#Cc1c(O)c2c(-c3ccc(-c4ccccc4O)cc3)csc2[nH]c1=O [A769662] (first compound 1 µM, partner dose 2 µM)	97.4
COCC[n+]1c2c(n(Cc3cnccn3)c1C)C(=O)c1ccccc1C2=O + CCCCCCCCCCCC1=C(O)C(=O)C=C(O)C1=O [Embelin] (first compound 0.0004 µM, partner dose 1.2 µM)	83.8
Cn1c(Nc2ccc(C(F)(F)F)cc2)nc2cc(Oc3ccnc(-c4ncc(C(F)(F)F)[nH]4)c3)ccc21 + Cc1cc([N+](=O)[O-])ccc1NS(=O)(=O)c1cc(Cl)ccc1Cl [FH535] (first compound 0.08 µM, partner dose 1 µM)	57.5
